Hit rate of the full screen: of about 150,000 compounds, about 540 (0.36%) showed an effect of 50% or more. Some of the results follow.

For this assay, the system named is Plasmodium falciparum. The assay is described as follows: Primary screen in NF54 nanoGlo assay, in single point, at 2uM, 72h; a lower Z score goes with more inhibition. The note with it: timepoint 72 hour. It counts as functional, Erythrocyte.
The term % Inhibition denotes the relative decrease from the control value, in per cent. Turning to `CCCN(c1ncc(Cl)cn1)C1CC1`, the “% Inhibition” value was -16% and the Z score is given as 1.63.
For `Cn1cccc1CN1CC[C@H]2CN(Cc3ccccc3)C[C@@]2(CO)C1`, the “% Inhibition” value is -7% and the Z score was determined as 1.18.
On the same counts, the results for `Fc1cc(Cl)cnc1OC[C@H]1CCCOC1` are 1% and -0.15.
Turning to `C[C@@H](c1ccccn1)N(C)Cc1cccc(-c2ccccc2)c1`, the “% Inhibition” value was -7% and the Z score is on record as 1.01.
The matching figures for `c1ccc(CN2C3CCC2CN(CCC2OCCO2)CC3)cc1` (configuration not stated): -4% and 0.49.
The matching figures for `COc1ccc(NC(=O)c2c(F)c(F)c3c(c2F)N(Cc2cccnc2)CCS3(=O)=O)cc1`: -9% and 1.22.
The matching figures for `Cc1c(COc2ccccc2)cccc1NCc1nnc(C2CC2)o1`: -3% and 0.53.
Turning to `Cc1cc(C(=O)N2CCC[C@@]3(CCC(=O)N(CCc4c[nH]cn4)C3)C2)[nH]n1`, the “% Inhibition” value is given as -10% and the Z score was determined as 1.61.
As for `CCOc1ccc(C(=O)N2CCC[C@H](Oc3nc(C)cc(C)n3)C2)cc1OCC`, the “% Inhibition” value is -1% and the Z score is recorded as 0.18.
The matching figures for `CCCC(CCC)NCC[C@H]1CCCO1`: -5% and 0.52.
On the same counts, the results for `CCCNC(=O)CCNC(=O)Nc1nn(C)cc1-c1ccccc1` are -1% and 0.11.
On the same counts, the results for `Cc1nn(C)cc1[C@H]1OCC[C@@H]1NC(=O)Nc1ccccc1C(C)(F)F` are -3% and 0.39.
As to `CCN(CC)C(=O)[C@@H]1CCCN1C(=O)Nc1cn[nH]c1`, the “% Inhibition” value was -14% and the Z score was found to be 2.77.
The matching figures for `CCN1CCCN(C(=O)Nc2cc([C@H]3CCCOC3)nn2C)CC1=O`: -1% and 0.16.
Take `Cc1ccc(-c2noc(CCCC(=O)N3CCC[C@H](c4nc(C5CCOCC5)no4)C3)n2)cc1`: the “% Inhibition” value is on record as -4% and the Z score is 0.51.
On the same counts, the results for `Cc1cnc(C)c(NCc2cccc(-c3nnc[nH]3)c2)n1` are -6% and 0.76.
The matching figures for `CCCOc1ccccc1CCNC(=O)[C@@H](C)Cn1cccn1`: -8% and 1.23.
Turning to `O=C1OC(C(=O)NC2CCCc3ccccc32)Cc2ccccc21` (configuration not stated), the “% Inhibition” value is 2% and the Z score is recorded as -0.25.
On to `CN(Cc1ccc(-n2cccn2)cc1)Cc1nc(Cc2cccc(F)c2)no1`, for which the “% Inhibition” value is recorded as -7% and the Z score is 0.88.
The matching figures for `Cc1cccc2c1CC(C)(C)N(C(=O)c1cn(CC3CC3)nn1)C2`: -1% and 0.24.
The matching figures for `Cc1cc(Br)cc(C(=O)NCC(C)(C)CO)c1`: 7% and -1.26.
For the molecule `FC(F)(F)c1cnc([C@H]2CCCN(Cc3csnn3)C2)[nH]1`, the “% Inhibition” value is reported as 0% and the Z score was determined as 0.09.
On the same counts, the results for `CCn1cc(S(=O)(=O)NCCc2c[nH]c3ccc(F)cc23)cn1` are -10% and 1.48.
The matching figures for `O=C(Nc1cccc(Cl)c1)c1ccnn1C1CCOCC1`: 2% and -0.43.
The matching figures for `O=C(c1c[nH]nc1-c1ccccn1)N1CC(c2ccccc2F)C1`: -24% and 4.72.
In the case of `CN(CC1(C)COC1)C(=O)NCc1cccc2[nH]ccc12`, the “% Inhibition” value is -15% and the Z score is 1.83.
On the same counts, the results for `CCOC(=O)[C@H]1CCCN(CC(=O)N2CCNC2=O)C1` are -6% and 0.65.
On the same counts, the results for `C[C@@]1(C(=O)OCCn2cccn2)CCCN1C(=O)c1ccccc1` are -1% and 0.11.
In the case of `O=C(c1cn[nH]c1)N1CCC(CC2CC2)(c2noc(-c3ccncc3)n2)CC1`, the “% Inhibition” value is listed as -5% and the Z score was determined as 0.65.
For `CCn1ccnc1[C@H]1CCCN(C(=O)C2CCCCC2)C1`, the “% Inhibition” value is given as -21% and the Z score turned out to be 2.14.
On the same counts, the results for `CC[C@H](C)NC(=O)CCN(CCOC)c1nc(-c2ccco2)nc2ccccc12` are -8% and 1.1.
`CCCCn1nc(C2CCOCC2)nc1CCC(=O)N(C)C`: the “% Inhibition” value was found to be 14% and the Z score was -1.78.
On to `CCc1cnc(NC(=O)C[C@H]2CCS(=O)(=O)C2)s1`, for which the “% Inhibition” value was -9% and the Z score came to 1.88.
On the same counts, the results for `c1cc(CNC[C@H]2COC3(CCOCC3)O2)cs1` are -8% and 1.23.
On the same counts, the results for `Cc1nnccc1NC(=O)NCC[C@@H]1OCCc2ccccc21` are 0% and 0.03.
On the same counts, the results for `Cc1cccc(S(=O)(=O)N2CCC(OCc3nc(C)no3)CC2)c1` are -11% and 1.39.
`O=C(NC1C2CC1N(C(=O)Cc1cccc3ccccc13)C2)c1sccc1F` (configuration not stated): the “% Inhibition” value is given as -3% and the Z score is on record as 0.4.
The matching figures for `O[C@H](c1ncc[nH]1)C1CCN(Cc2ccccc2C2CC2)CC1`: 4% and -0.75.
On the same counts, the results for `CC(C)c1nncn1CCNC(=O)c1cn(C)c(=O)[nH]1` are -2% and 0.43.
On the same counts, the results for `Cc1noc(C)c1S(=O)(=O)N1CCC[C@H](c2nnc(C(=O)Nc3ccccc3)s2)C1` are -8% and 1.14.
For `O=C(CC[C@@H]1CNC(=O)[C@@H]2C[C@H](NC(=O)Nc3cccc(Cl)c3)CN12)NCc1cccnc1`, the “% Inhibition” value is -9% and the Z score was 1.14.
On the same counts, the results for `CCCO[C@H]1CCCN(c2ncc(C#N)c(N)n2)C1` are -13% and 2.4.
On the same counts, the results for `COc1ccc(CN(C)C(=O)C[C@]2(c3cccc(F)c3)CC(=O)N(C3CCCC3)C2=O)cc1OC` are 3% and -0.46.
Turning to `CCCCNC(=O)CN(C)Cc1nnc(C)s1`, the “% Inhibition” value came out at 2% and the Z score was -0.21.
On the same counts, the results for `OC(c1cccnc1)c1nccn1CCOC1CC1(F)F` (configuration not stated) are 21% and -2.64.
On the same counts, the results for `c1cc(-c2noc(CC3CCC4CC34)n2)ncn1` (configuration not stated) are -4% and 0.76.
The matching figures for `CCCOc1ccccc1[C@H](C)Nc1nc(-c2cccnc2)nc2c1CNC2`: 4% and -0.56.
Regarding `Cc1cc(C(=O)N2CCOCC2)c(C)s1`, the “% Inhibition” value is -3% and the Z score turned out to be 0.42.
In the case of `COc1ccc([C@H]2OCC[C@@H]2NCc2cnc(N3CCN(C)CC3)nc2)cn1`, the “% Inhibition” value was 11% and the Z score was -1.22.
The matching figures for `CC(=O)N1c2nc(-c3ccco3)nn2C2(CCCCC2)[C@@H]2CCCC[C@@H]21`: -25% and 2.24.
On the same counts, the results for `Cc1cnn(C2CN(Cc3cn4c(C)cccc4n3)C2)c1` are 8% and -1.25.
The matching figures for `CCCNC(=O)CNc1ccc(F)cc1CS(C)(=O)=O`: -9% and 0.93.
With `Oc1cc(CNCCc2nccs2)nc2c(F)cccc12`, the “% Inhibition” value is reported as -8% and the Z score was 1.14.
The matching figures for `CC(C)CN(C(=O)CC#N)c1ccc(C(F)(F)F)cc1`: 0% and -0.06.
On the same counts, the results for `CC(=O)c1ccc(-c2ccc(C(=O)NCc3nc4ccccc4[nH]3)o2)cc1` are -8% and 0.82.
The matching figures for `O=C([C@@H]1CC=CCC1)N1CCC(Oc2cccc(F)c2)(C(=O)O)CC1`: -1% and 0.21.
Turning to `C[C@@H](C(N)=O)N1CCc2[nH]nc(-c3cccc4ccccc34)c2C1`, the “% Inhibition” value is -4% and the Z score is listed as 0.55.
The matching figures for `Nc1c2c(-c3ccc(F)cc3)nc(N3CCN(c4ccccc4)CC3)nc2nn1-c1ccccc1`: -3% and 0.33.
The matching figures for `O=C(Nc1ccc(F)cc1)c1c(-c2ccc(Cl)cc2)nc2n1CCS2(=O)=O`: 30% and -0.02.
The matching figures for `CCCn1ncnc1[C@H](C)NC(=O)c1ccon1`: 0% and 0.06.
Turning to `CCC1CCC(C(=O)NC2(C(N)=O)CCCCC2)O1` (configuration not stated), the “% Inhibition” value is reported as -11% and the Z score is on record as 1.53.
On the same counts, the results for `Cn1nncc1NC(=O)N1Cc2cccnc2N2CCC[C@@H]2C1` are 9% and -0.94.
The matching figures for `Fc1ccccc1N1CCN(c2c3c(nc4ccc(Cl)cc24)CCC3)CC1`: 5% and -0.7.
On to `Cc1csc(NC(=O)CCN2C(=O)CCC2=O)n1`, for which the “% Inhibition” value came out at 6% and the Z score is on record as -0.95.
Regarding `Cc1noc([C@H](C)N(C)c2nc3c(s2)c(C)nn3C)n1`, the “% Inhibition” value is given as -10% and the Z score was found to be 1.91.
On the same counts, the results for `O=C(c1ccoc1)N1CCC(n2nccn2)CC1` are 18% and -2.01.
On the same counts, the results for `CCCNC(=O)[C@@H](NC(=O)c1cccc(C)c1)C1CCN(C(=O)CC(C)(C)C)CC1` are -6% and 1.03.
For `CCC(C)NC(=O)C1CCCN(c2nnc(C)c3c(C)n(-c4ccc(Cl)cc4)nc23)C1` (configuration not stated), the “% Inhibition” value is reported as -9% and the Z score was 1.41.
The matching figures for `Cc1cc(NC(=O)N2CCCC[C@@H]2CCC(=O)OC(C)(C)C)no1`: 0% and 0.02.
In the case of `COCc1nc(C(=O)N(CC(F)(F)F)c2nc(C)cs2)cs1`, the “% Inhibition” value is recorded as -10% and the Z score was found to be 1.35.
As for `CC(C)[C@H]1CCCN(C(=O)NCc2ccc(=O)[nH]n2)C1`, the “% Inhibition” value is reported as -4% and the Z score is given as 0.56.
Regarding `COc1c(C)cnc(Cn2ccn3nc(-c4ccccc4Cl)cc3c2=O)c1C`, the “% Inhibition” value was -4% and the Z score was determined as 0.7.
In the case of `CCN(CC)c1ncccc1CNc1ncccc1C#N`, the “% Inhibition” value was found to be 10% and the Z score is -1.39.
The matching figures for `Cc1cc(C(=O)N[C@H]2CCN(Cc3csc(C)n3)C[C@@H]2O)nc(N)n1`: 8% and -1.42.
On the same counts, the results for `CC(C)c1nn(-c2ccccc2)c(Oc2ccccc2F)c1CN(CC1CC1)C(=O)c1cccc(F)c1` are -2% and 0.18.
The matching figures for `O=C(NCc1cccs1)Nc1cccc(Cn2nc3ccccn3c2=O)c1`: -11% and 0.96.
With `O=C(NCc1ccccn1)[C@@H]1CNc2ccccc21`, the “% Inhibition” value is on record as 1% and the Z score is -0.21.
On the same counts, the results for `COc1ccc(CCc2nc(NC(=O)c3ccco3)n[nH]2)cc1` are -3% and 0.36.
The matching figures for `Cc1n[nH]c(C)c1CCc1n[nH]c(=O)n1-c1c(C)noc1C`: -2% and 0.49.
On the same counts, the results for `COCc1nc(CCN2CCCC2=O)n(C2Cc3ccccc3C2)n1` are -7% and 0.61.
For `O=C(NC1CCc2ccccc21)C1CCCO1` (configuration not stated), the “% Inhibition” value was -2% and the Z score worked out at 0.34.
On the same counts, the results for `O=C(NC1C2CCOC2C12CCC2)c1ccnc(N2CCCC2)n1` (configuration not stated) are 7% and -1.3.
On the same counts, the results for `CN(CCN(C)C1CCCC1)C(=O)c1csc(N)n1` are -1% and 0.25.
As for `COCCN1C(=O)CC(CC(=O)N2CCCCC2COC)(c2cccc(OC)c2)C1=O` (configuration not stated), the “% Inhibition” value is listed as -17% and the Z score came out at 2.46.
The matching figures for `COC(=O)c1nc(NC(=O)c2cc3cc(F)ccc3n2C)sc1-c1ccccc1OC`: -11% and 1.38.
The matching figures for `COc1ccc(CN2CCC(c3ncncc3C)CC2)cn1`: 6% and -0.56.

For the origin of these results see ChEMBL document CHEMBL4888484, “Replenishing the malaria drug discovery pipeline: Screening and hit evaluation of the MMV Hit Generation Library 1 (HGL1) against asexual blood stage Plasmodium falciparum ,using a nano luciferase reporter read-out” (2022).
